Laboratory results taken from the supplement of paper PMC11417369.
The list shows a part of the results.

test system: PfAP2-HC AP2 domain (GST-tagged); test: gcPBM binding intensity (ln(normalized median fluorescence intensity)); higher = stronger DNA binding
In short: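 Plasmodium falciparum DNA-binding domains carrying a GST tag were expressed in E. coli and applied for 1 h, at about 25 μg on average, to an Agilent 4 × 180k array. The array held primer-extended double-stranded 36-bp intergenic genomic probes together with negative controls, and binding took place in 1× PBS with 1% milk, 0.2 mg/ml BSA, 0.5% salmon testes DNA and 0.03% Triton X-100. An Alexa488 anti-GST antibody detected bound protein, and the array was scanned at 488 nm. Binding intensity is taken as the highest Masliner-normalised natural-log median intensity across replicate spots of either probe orientation.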

| Sequence | gcPBM binding intensity (ln) |
| --- | --- |
| TGCTCAAACTTTACAAATGAACGAATATAAAAAAAG [CACACA_negctrl_site541] | 9.41 |
| AAATAATCATAAAATAAACACACATATATAAATATA [CACACA_site7981] | 9.9 |
| TTACAAAAAGGTAATTTACACACTGCATATAGGAAT [CACACA_site8956] | 9.78 |
| TCTTAATATGGTAATACACACTAATATACTTTTGTT [CACACA_site4969] | 9.93 |
| TTAAAAAAAAATGGCACACATTTTAATTTTATGTTT [CACACA_site5035] | 9.56 |
| TTTATTTAATTCATTGCATGTAATTTTTGTGTCCAC [TGCATGCA_site677] | 9.61 |
| TTTTATGATAATTTTGCACACACTTAGGAAAAATTA [CACACA_site1556] | 9.65 |
| TTGTGATTATATAATCGTACATAATTTTAATCACAC [XGTACX_site398] | 9.58 |
| AAAAAAAAAAAAAACACACACATATCTATAATATAT [CACACA_site7481] | 10.3 |
| GAATATAAACATATTACACACATCTATATGTACTTT [CACACA_site8582] | 9.97 |
| CAAAACAAAGTTGCCGCACACAGATACGCACCCAAG [CACACA_site3455] | 10 |
| ATTTATTTATATAATACACACAAATATCTTAATGAA [CACACA_site6064] | 9.58 |
| ATTTTTTCTAATGGGTGTACTGAAACGTATTTTATT [XGTACX_site6573] | 9.86 |
| TTATTTTTTCTTTTTTTTCTTACCACAAAAATGGAT [CACACA_negctrl_site362] | 9.36 |
| ATTTGTAATTATTAAACACACACAAAATATATATAA [CACACA_site8804] | 10.1 |
| GTAATATTATAATATACACACATAGAATATAAATAT [CACACA_site6333] | 9.88 |
| TTCAAGATTTATTATACACACATATTAATATATATA [CACACA_site573] | 9.61 |
| AAAATACACCAACACACACACATATATATATATATT [CACACA_site4149] | 10.3 |
| TTAAAGATATACAAAAGTACTTTTTTTTTCGTCATT [XGTACX_site384] | 9.49 |

| Sequence | gcPBM binding intensity (ln) |
| --- | --- |
| TTCATTAAATAGAACAAAATAATAATATAACAACAA [GTGCAC_negctrl_site116] | 9.7 |
| CCATATCTTTTTTGCACACACTACAATAAAACAAAA [CACACA_site4995] | 9.9 |
| TGAGAGAGAAACGTAGTGCATAAAATCAAATTTAGA [GTGCAC_site9737] | 9.71 |
| GGTTCATATATTAACACACACATACATATTATATAT [CACACA_site2937] | 10.5 |
| AATAATCATAGTTCTACACACCTATATTGCAAAAAA [CACACA_site867] | 9.69 |
| TTATAAAAAATTTTAGTGCATATATGATTTATATAT [GTGCAC_site9831] | 9.52 |
| TAATATGTATTTACAAGTACTAACAAAATATTAAAA [XGTACX_site3379] | 9.59 |
| TACAAAAATAAATGTTGTACTATTATTTATTTCGAT [XGTACX_site1048] | 9.51 |
| TATATAGCATATTTCACACACACATAATGAATATTA [CACACA_site3546] | 10.6 |
| ATGATATACGTAAACACACAAATAAAAAAAATTTAT [CACACA_site7544] | 9.78 |
| TTTTTTAGTTTTTAGTGTACATAAATAAATAAATAA [XGTACX_site2843] | 9.25 |
| TTAAAAAGAAAGTTCACACACATATAGATGACGGAA [CACACA_site7268] | 10.1 |
| TGATACTTATGATAAATACACACTTGAAATTAAGGA [CACACA_site1152] | 9.65 |
| TATATTACAAAAAGTACACACATAAATAAATACATA [CACACA_site975] | 9.96 |
| ATGCTCAAAAGATATGCATGTACAAATATATGAAAT [TGCATGCA_site592] | 9.65 |
| AAATTAAAATAATAATTCTACAAATTAATTTATCAT [XGTACX_negctrl_site44] | 9.51 |
| TATCAAATGTATATATGTACTTATATTTTTTTTATA [XGTACX_site1501] | 9.54 |
| AATATATTTTCCTGCAAACACACATATAAATGTGTA [CACACA_site532] | 9.71 |
| ACTTCAAAAATAAACTGTACGTAAAAAAAAAAAAAA [XGTACX_site795] | 9.51 |

| Sequence | gcPBM binding intensity (ln) |
| --- | --- |
| TTTCTTTTTTTTTTTGTATATTAAATCTAAAAAGGA [TGCATGCA_negctrl_site431] | 9.29 |
| TTTAAATAAAATATTACACACTTAGAAAAATATATA [CACACA_site3663] | 9.58 |
| TTTCGTAAAATGAAATGTACTCAAAAGTAAATATAA [XGTACX_site214] | 9.48 |
| ACATACATACACCCACGTACGTACCGAAACACCACC [XGTACX_site1212] | 9.91 |
| GATATAATGTGTTTGGTATTCTTGATAGATAGTTTT [CACACA_negctrl_site1711] | 9.81 |
| ATGATGTCTTTATATTGTACATATATGAAGACGTTA [XGTACX_site7751] | 9.46 |
| TTAACCTTTTGATATTGTACCCATAATCTAATACAA [XGTACX_site769] | 9.44 |
| TTTTTTAAAAAAGTTTTCTGTATTTATATATATATA [CACACA_negctrl_site31] | 9.48 |
| TCATATGTATAAATTAGTACATATTTAATGGATATA [XGTACX_site3298] | 9.48 |
| CTATCTACATAAACGTGTACCCACAAATAAATAAAT [XGTACX_site5210] | 9.6 |
| TTATGTCATAAATGCACACATATATATATACATATA [CACACA_site1588] | 9.76 |
| AGGCACGTGTTATATACACACATAATCAAATAAACT [CACACA_site7852] | 9.79 |
| ACATTTTATACGATAAAATGTATAAGATTATGAAGA [TGCATGCA_negctrl_site476] | 9.64 |
| AAAATAATAACATTGTGTACATAAAAAGAAAACCTT [XGTACX_site840] | 9.95 |
| TATGAATGGTTAAGTACACACATATTAATATATGTA [CACACA_site3490] | 9.69 |
| AAATGAAAATAAAGCAACAGAAATATAATGTATTAT [GTGCAC_negctrl_site508] | 9.88 |
| TTTTTTTACAACATTACACACAAATATTCTGTGTTA [CACACA_site5957] | 10 |
| AGAAAATTAAAAAGAACACACAAATATATATATAAT [CACACA_site5896] | 10.2 |
